Assay results: the supplement of paper PMC9446081
In all, about 39,000 compounds went through this assay and about 220 (0.56%) showed activity. Some of the results follow.

system: Escherichia coli K-12 BW25113; test: relative growth (OD600 normalised to plate interquartile mean) (fraction); higher = less growth inhibition, active = 0.2 or less; conditions: 50 µM; LB; incubation time: overnight (16-24 h)
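Note: static incubation at 37 °C against the wild-type strain, values averaged over two biological replicates.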

Q: C[C@H](CO)N1C[C@H](C)[C@@H](CN(C)C(=O)c2ccncc2)Oc2ncc(C#CC3CCCCC3)cc2C1=O was tested. Which relative growth did it give?
A: Its relative growth is inactive: 0.995.

Q: With C[C@H](CO)N1C[C@H](C)[C@H](CN(C)S(=O)(=O)c2cn(C)cn2)Oc2c(NS(=O)(=O)c3ccccc3)cccc2C1=O as the compound, how does the relative growth read?
A: The relative growth was inactive: 0.995.

Q: How did the relative growth turn out when C[C@@H]1CN([C@H](C)CO)C(=O)Cc2cc(NC(=O)Cn3cnnn3)ccc2O[C@@H]1CN(C)Cc1ccc(Cl)c(Cl)c1 was run?
A: Its relative growth is inactive: 0.97.

Q: With C[C@@H]1CCCCO[C@H](CN(C)S(=O)(=O)c2ccc(Cl)cc2)[C@@H](C)CN([C@@H](C)CO)C(=O)c2cc(NS(=O)(=O)c3cccs3)ccc2O1 as the compound, how does the relative growth read?
A: The relative growth was inactive: 1.01.

Q: With COCC#Cc1ccc2c(c1)O[C@H](CN(C)Cc1ccc(F)cc1)[C@H](C)CN([C@@H](C)CO)S2(=O)=O as the compound, how does the relative growth read?
A: The relative growth was inactive: 1.03.

Q: For C[C@H](CO)N1C[C@H](C)[C@H](CN(C)Cc2ccc(Oc3ccccc3)cc2)Oc2c(NC(=O)NC3CCCCC3)cccc2C1=O, which relative growth is on record?
A: Its relative growth is inactive: 0.99.

Q: Which relative growth does the source give for C[C@H]1CN([C@@H](C)CO)C(=O)Cc2cc(NS(=O)(=O)c3ccccc3)ccc2O[C@H]1CN(C)S(=O)(=O)c1cccs1 here?
A: The relative growth was inactive: 0.998.

Q: For CCC(=O)Nc1ccc(Cl)cc1, which relative growth is on record?
A: The relative growth was inactive: 1.

Q: C[C@@H]1CCCCO[C@@H](CN(C)C(=O)CCCN(C)C)[C@@H](C)CN([C@H](C)CO)C(=O)c2cc(NS(=O)(=O)c3cn(C)cn3)ccc2O1 was tested. Which relative growth did it give?
A: Its relative growth is inactive: 0.965.

Q: With O=c1nc[nH]c2nn(-c3ccccc3)nc12 as the compound, how does the relative growth read?
A: The relative growth was inactive: 0.991.

Q: For C[C@@H]1CN([C@H](C)CO)S(=O)(=O)c2ccc(C#Cc3ccccc3F)cc2O[C@H]1CN(C)C(=O)Cc1cccnc1, which relative growth is on record?
A: The relative growth was inactive: 1.01.

Q: Which relative growth does the source give for OC[C@@H](O)[C@@H](O)[C@H](O)[C@H](O)CO here?
A: The relative growth was inactive: 0.981.

Q: How did the relative growth turn out when C[C@@H]1CCCCO[C@H](CN(C)C(=O)Cc2ccccc2)[C@@H](C)CN([C@@H](C)CO)C(=O)c2cc(NC(=O)Nc3ccccc3)ccc2O1 was run?
A: Its relative growth is inactive: 1.01.

Q: C[C@H]1CN([C@@H](C)CO)C(=O)Cc2cc(NC(=O)Nc3ccc4c(c3)OCO4)ccc2O[C@@H]1CN(C)S(=O)(=O)c1cn(C)cn1 was tested. Which relative growth did it give?
A: Its relative growth is inactive: 0.994.

Q: How did the relative growth turn out when Cc1noc(C)c1NC(=O)Nc1ccc2c(c1)C(=O)N([C@@H](C)CO)C[C@H](C)[C@H](CN(C)C(=O)Nc1cccc3ccccc13)O2 was run?
A: The relative growth was inactive: 0.994.

Q: How did the relative growth turn out when COc1cccc(C#Cc2cnc3c(c2)C(=O)N([C@@H](C)CO)C[C@@H](C)[C@H](CN(C)C(=O)C2CCC2)O3)c1 was run?
A: Its relative growth is inactive: 0.998.

Q: Cc1ccc(S(=O)(=O)N(C)C[C@H]2Oc3ccc(NC(=O)c4ccncc4)cc3C(=O)N([C@H](C)CO)C[C@H]2C)cc1 was tested. Which relative growth did it give?
A: Its relative growth is inactive: 0.982.

Q: With O=C(C[C@@H]1CC[C@@H]2[C@H](COC[C@H](O)CN2S(=O)(=O)c2ccccc2F)O1)NCc1ccccc1F as the compound, how does the relative growth read?
A: Its relative growth is inactive: 1.02.

Q: With C[C@H]1CN([C@@H](C)CO)C(=O)c2cc(NC(=O)CCCN(C)C)ccc2O[C@H]1CN(C)Cc1ccncc1 as the compound, how does the relative growth read?
A: The relative growth was inactive: 0.975.

Q: For Cc1cc(C(=O)Nc2cccc3c2O[C@@H](CN(C)S(=O)(=O)c2ccc(Cl)cc2)[C@@H](C)CN([C@H](C)CO)C3=O)n(C)n1, which relative growth is on record?
A: Its relative growth is inactive: 0.989.

Q: For C[C@@H]1CCCCO[C@@H](CN(C)C(=O)NC2CCCCC2)[C@@H](C)CN([C@@H](C)CO)C(=O)c2cc(NC(=O)C3CCCCC3)ccc2O1, which relative growth is on record?
A: Its relative growth is inactive: 1.01.

Q: Which relative growth does the source give for C(=N\Cc1cccnc1)/c1c2ccccc2cc2ccccc12 here?
A: Its relative growth is inactive: 1.01.

Q: For COc1ccc2c3c(n(c2c1)C)[C@H](CO)N(C[C@]13CN(Cc2cccc(c2)F)C1)C(=O)C1CCOCC1, which relative growth is on record?
A: The relative growth was inactive: 1.01.

Q: How did the relative growth turn out when Cc1noc(C)c1NC(=O)N(C)C[C@@H]1Oc2ccc(NC(=O)NC(C)C)cc2C(=O)N([C@@H](C)CO)C[C@@H]1C was run?
A: Its relative growth is inactive: 0.989.

Q: Which relative growth does the source give for COc1cc(N2CCC(N)CC2)ccc1Nc1ncc(Cl)c(-c2c[nH]c3ccccc23)n1 here?
A: Its relative growth is inactive: 0.96.

Q: C[C@@H]1CN([C@H](C)CO)C(=O)c2cc(N(C)C)ccc2O[C@@H]1CN(C)S(=O)(=O)c1ccc(Cl)cc1 was tested. Which relative growth did it give?
A: The relative growth was inactive: 1.01.

Q: How did the relative growth turn out when C[C@H](CO)N1C[C@H](C)[C@H](CN(C)S(C)(=O)=O)Oc2ccc(NC(=O)Nc3ccc(F)cc3)cc2CC1=O was run?
A: The relative growth was inactive: 1.02.

Q: How did the relative growth turn out when O=C(C[C@@H]1C[C@@H]2c3cc(NC(=O)NC4CCCC4)ccc3O[C@@H]2[C@H](CO)O1)NCc1ccc(-c2ccccc2)cc1 was run?
A: The relative growth was inactive: 0.933.

Q: O=C(/C=C/c1ccc(O)c(O)c1)O[C@@H]1C[C@](O)(C(=O)O)C[C@@H](OC(=O)/C=C/c2ccc(O)c(O)c2)[C@H]1O was tested. Which relative growth did it give?
A: Its relative growth is inactive: 1.02.

Q: How did the relative growth turn out when COc1ccc2c3c([nH]c2c1)[C@@H](CO)N(C[C@]13CCN(CC1)Cc1ccccc1)S(=O)(=O)c1cn(cn1)C was run?
A: The relative growth was inactive: 0.977.

Q: With CCCC(=O)Nc1ccc2c(c1)C(=O)N(C)C[C@@H](OC)[C@@H](C)CN(Cc1ccc(-c3ccccn3)cc1)[C@H](C)CO2 as the compound, how does the relative growth read?
A: The relative growth was inactive: 0.999.

Q: C[C@H]1CN([C@@H](C)CO)C(=O)c2cccc(NC(=O)c3ccc(-c4nccs4)cc3)c2O[C@H]1CN(C)C(=O)Nc1ccccc1 was tested. Which relative growth did it give?
A: Its relative growth is inactive: 0.993.

Q: For CCc1nc2ccc(C(=O)N3CCN(S(=O)(=O)CC)CC3)cn2c1N(CC)C(=O)CCC1CCCC1, which relative growth is on record?
A: Its relative growth is inactive: 1.

Q: With O=C1OC(c2ccc(O)cc2)(c2ccc(O)cc2)c2ccccc21 as the compound, how does the relative growth read?
A: Its relative growth is inactive: 0.897.

Q: COc1cc(C(=S)N2CCOCC2)ccc1O was tested. Which relative growth did it give?
A: Its relative growth is inactive: 1.03.

Q: Which relative growth does the source give for COc1cc(OC)c2c(=O)cc(-c3ccccc3)oc2c1 here?
A: Its relative growth is inactive: 0.974.

Q: How did the relative growth turn out when COc1ccc(S(=O)(=O)Nc2ccc3c(c2)C(=O)N([C@@H](C)CO)C[C@@H](C)[C@@H](CN(C)Cc2ccc4c(c2)OCO4)OCCCC[C@H](C)O3)cc1 was run?
A: Its relative growth is inactive: 0.99.

Q: Which relative growth does the source give for COc1oc(C(=O)NC2CCCCC2)c(-c2ccc(Cl)cc2)c1S(=O)(=O)c1ccccc1Cl here?
A: Its relative growth is inactive: 1.

Q: C[C@H](CO)N1C[C@H](C)[C@@H](CN(C)S(=O)(=O)c2ccccc2)OCCCC[C@H](C)Oc2ccc(NC(=O)Nc3ccccc3)cc2C1=O was tested. Which relative growth did it give?
A: Its relative growth is inactive: 1.05.

Q: With Cc1ccc(S(=O)(=O)N(C)C[C@H]2Oc3ccc(NC(=O)CCN4CCOCC4)cc3CC(=O)N([C@@H](C)CO)C[C@H]2C)cc1 as the compound, how does the relative growth read?
A: The relative growth was inactive: 1.

Q: CCNC(=O)[C@@H]1N[C@@H]2c3ccc(-c4cccc(C(=O)N(C)C)c4)c(=O)n3C[C@@H]2[C@H]1CO was tested. Which relative growth did it give?
A: Its relative growth is inactive: 1.02.

Q: How did the relative growth turn out when COCC#Cc1ccc2c(c1)O[C@H](CN(C)C(=O)Nc1ccc(OC)cc1)[C@H](C)CN([C@@H](C)CO)S2(=O)=O was run?
A: The relative growth was inactive: 1.

Q: For Cc1cc(C(=O)Nc2cccc3c2O[C@H](CN(C)C(=O)NC2CCCCC2)[C@H](C)CN([C@@H](C)CO)C3=O)n(C)n1, which relative growth is on record?
A: Its relative growth is inactive: 0.992.

Q: How did the relative growth turn out when CC(C)NC(=O)N(C)C[C@H]1Oc2ccc(NC(=O)CCN3CCOCC3)cc2CC(=O)N([C@@H](C)CO)C[C@H]1C was run?
A: Its relative growth is inactive: 1.03.

Q: Cc1noc(C)c1NC(=O)Nc1ccc2c(c1)C(=O)N([C@@H](C)CO)C[C@@H](C)[C@@H](CN(C)C(=O)c1ccccc1)OCCCC[C@@H](C)O2 was tested. Which relative growth did it give?
A: The relative growth was inactive: 0.977.

Q: Which relative growth does the source give for C[C@H](CO)N1C[C@H](C)[C@@H](CN(C)S(C)(=O)=O)OCCCC[C@H](C)Oc2ccc(NC(=O)CCCN(C)C)cc2C1=O here?
A: The relative growth was inactive: 0.994.

Q: For COc1ccc(C#Cc2ccc3c(c2)[C@]2(C(=O)N3)[C@H](C(=O)N3CCN(c4ncccn4)CC3)[C@H]3C(=O)O[C@H](c4ccccc4)[C@H](c4ccccc4)N3[C@@H]2c2ccccc2OCCO)cc1, which relative growth is on record?
A: The relative growth was inactive: 1.07.

Q: How did the relative growth turn out when C[C@H]1CN([C@@H](C)CO)C(=O)c2cc(NC(=O)CCN3CCOCC3)ccc2O[C@H]1CN(C)CC1CC1 was run?
A: The relative growth was inactive: 1.02.

Q: How did the relative growth turn out when C[C@H](CO)N1C[C@H](C)[C@H](CN(C)S(=O)(=O)c2ccc(F)cc2)Oc2ccc(NS(=O)(=O)c3ccc(F)cc3)cc2C1=O was run?
A: Its relative growth is inactive: 0.926.

Q: O=C(C[C@H]1C=C[C@H](NC(=O)c2ccc(F)cc2)[C@H](CO)O1)NCc1ccncn1 was tested. Which relative growth did it give?
A: Its relative growth is inactive: 1.01.

Q: COc1ccc2c(C)cc(=O)oc2c1 was tested. Which relative growth did it give?
A: Its relative growth is inactive: 0.968.

Q: C[C@@H]1CN([C@H](C)CO)C(=O)c2cc(NC(=O)Cn3cnnn3)ccc2O[C@@H]1CN(C)C(=O)Nc1ccc(F)cc1 was tested. Which relative growth did it give?
A: The relative growth was inactive: 0.957.

Q: With C[C@H](CO)N1C[C@H](C)[C@@H](CN(C)C(=O)c2ccccc2)OCCCC[C@H](C)Oc2ccc(NS(=O)(=O)c3ccccc3)cc2C1=O as the compound, how does the relative growth read?
A: Its relative growth is inactive: 0.975.

Q: How did the relative growth turn out when C[C@@H]1CCCCO[C@@H](CN(C)Cc2ccc(Cl)c(Cl)c2)[C@H](C)CN([C@H](C)CO)C(=O)c2cc(NS(=O)(=O)c3cn(C)cn3)ccc2O1 was run?
A: Its relative growth is inactive: 0.986.

Q: COc1ccc(NC(=O)Nc2ccc3c(c2)C(=O)N([C@@H](C)CO)C[C@H](C)[C@H](CN(C)Cc2ccncc2)OCCCC[C@@H](C)O3)cc1 was tested. Which relative growth did it give?
A: The relative growth was inactive: 1.01.

Q: With CCO[C@H]1OC(C(=O)N2CCN(Cc3ccc4c(c3)OCO4)CC2)=C[C@@H](c2ccc(Br)cc2)[C@@H]1CCCOC(=O)NCCCCCC(=O)NO as the compound, how does the relative growth read?
A: Its relative growth is inactive: 0.998.

Q: CC(=O)OC[C@]12[C@H](OC(=O)c3ccccc3)C[C@@H]3[C@@H](OC(C)=O)[C@]1(OC3(C)C)[C@H](C)C[C@H](OC(C)=O)[C@@H]2OC(C)=O was tested. Which relative growth did it give?
A: The relative growth was inactive: 1.01.

Q: Which relative growth does the source give for O=C(N[C@@H]1C=C[C@@H](CC(=O)N2CCOCC2)O[C@@H]1CO)c1ccc2c(c1)OCO2 here?
A: The relative growth was inactive: 1.03.

Q: Cc1ccc(S(=O)(=O)N(C)C[C@H]2Oc3ccc(NC(=O)NC(C)C)cc3CC(=O)N([C@@H](C)CO)C[C@H]2C)cc1 was tested. Which relative growth did it give?
A: The relative growth was inactive: 0.995.

Q: For C[C@@H]1CN([C@@H](C)CO)S(=O)(=O)c2ccc(-c3cccc(C(=O)N(C)C)c3)cc2O[C@@H]1CN(C)C(=O)Cc1ccccn1, which relative growth is on record?
A: The relative growth was inactive: 0.984.
